Reference: ChEMBL document CHEMBL1201862, “PubChem BioAssay data set” (2004)
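Cultured in 96-well plates, cells were exposed to test compound for 48 hours across five concentrations. Here, GI50 denotes the concentration required for 50% inhibition of growth.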 Calls of active or inactive are those of the source. Rule as the data show it: active = GI50 up to about 1.1 µM and inactive = higher. Square brackets hold non-standard residues; d marks the D form. Peptide text beside a SMILES is read from it. * marks the point of attachment. ξ: configuration not given here. Ethyl(2-NMe3+) = C[N+](C)(C)CC*; ξD = NC(CC(=O)O)C(=O)O; Boc = CC(C)(C)OC(=O)*; Aib = CC(C)(N)C(=O)O; OBn = c1ccc(CO*)cc1

The compounds below were run on NCI-H322M (assay: DTP human tumour cell line panel, 48 h).
In the case of `CCCN(CCCc1ccccc1)CCc1ccc2[nH]c(=S)[nH]c2c1`, the GI50 is reported as inactive: 49.3 µM.
In the case of `CN(Cc1cc(C(C)(C)C)cc(Br)c1O)Cc1cc(C(C)(C)C)cc(Br)c1O`, the GI50 is reported as inactive: 5.5 µM.
For `COc1ccc(N[S+]([O-])c2ccccc2OC)cc1` (stereo not drawn), the GI50 was inactive: 10.4 µM.
In the case of `O=C1Nc2nccnc2C(=O)N2CCC[C@@H]12`, the GI50 is reported as inactive: > 100 µM.
With `C(/C=N/N=C1NCCN1)=N\N=C1NCCN1` the GI50 was inactive: > 100 µM.
For `CCCCCCCCCCCCSC(=S)c1c(C)[nH]n(CCCCCCCCCCCC)c1=O`, the GI50 was inactive: > 100 µM.
In the case of `NC(=O)c1ncn(C2C=CC(CP(=O)(O)O)C2)c1N` (stereo not drawn), the GI50 is reported as inactive: > 100 µM.
For `COC(=O)c1ccc(C)cc1/C=C1\Cc2ccc(C)cc2C1=O`, the GI50 was inactive: 29.9 µM.
In the case of `O=C1CSCc2sccc21`, the GI50 is reported as inactive: > 100 µM.
For `Nc1c(C(=O)c2ccc(Cl)cc2)[nH]c(NCc2ccccc2)c1C(=S)Nc1ccccc1`, the GI50 was inactive: 2.03 µM.
For `OCC1=C[C@@](COCc2ccccc2)(OCc2ccccc2)[C@@H](OCc2ccccc2)[C@@H]1OCc1ccccc1`, the GI50 was inactive: 18.2 µM.
In the case of `C=C1c2c(cc3c(c2O)c(=O)c2ccccc2n3C)OC1(C)C`, the GI50 is reported as inactive: > 100 µM.
For `CCCc1c(O)c(=O)c2c(OC)cc(OC)c3c4c(OC)cc(OC)c5c(=O)c(O)c(CCC)c(c1c23)c54`, the GI50 was inactive: 2.24 µM.
`COc1ccc(C(=O)O)c2c(=O)c3cccnc3[nH]c12` was tested, and the GI50 was inactive: > 100 µM.
In the case of `CC1=C/C(=N\NS(=O)(=O)c2ccc([N+](=O)[O-])cc2)CC(C)(C)C1`, the GI50 is reported as inactive: > 100 µM.
In the case of `O=C(O)[C@H](NS(=O)(=O)c1ccc([N+](=O)[O-])cc1)c1ccccc1`, the GI50 is reported as inactive: > 100 µM.
`CC1=CC(=O)/C(=C/NC(=S)Nc2ccccc2)C(=O)O1` was tested, and the GI50 was inactive: > 100 µM.
`O=C1CC(c2ccccc2Cl)Oc2ccccc21` (stereo not drawn) was tested, and the GI50 was inactive: > 100 µM.
In the case of `CCOC(=O)C(SCCO)C(C(=O)OCC)n1ccc(N)nc1=O` (stereo not drawn), the GI50 is reported as inactive: > 100 µM.
For `Cc1cccc(C2=NC(C)(C)C(C)(C)N=C2c2cccc(C)n2)n1`, the GI50 was inactive: > 100 µM.
`CSc1ncnc2c1cnn2Cc1cn(CCCCO)nn1` was tested, and the GI50 was inactive: > 100 µM.
`O=C(c1ccco1)N(C(=S)OCc1ccccn1)c1ccccc1` was tested, and the GI50 was inactive: > 100 µM.
In the case of `CC(NC(=O)C(Cc1ccc(OCC[N+](C)(C)C)cc1)NC(=O)OC(C)(C)C)C(=O)NC(Cc1ccccc1)C(=O)NCC(N)=O` (stereo not drawn) (Boc-Y(Ethyl(2-NMe3+))AFG-NH2; configuration not given here), the GI50 is reported as inactive: 11.3 µM.
For `O=C1N/C(=N\N=C\c2ccccc2)C(c2ccccc2)O1` (stereo not drawn), the GI50 was inactive: 60.3 µM.
With `COC(=O)C1Cc2c(C)cccc2C1=O` (stereo not drawn) the GI50 was inactive: > 100 µM.
`COc1ccc2ccccc2c1C1NC(=O)c2ccccc2N1` (stereo not drawn) was tested, and the GI50 was inactive: 6.21 µM.
For `Cc1ccc(-c2n[nH]c(CC#N)n2)cc1`, the GI50 was inactive: 86.1 µM.
With `CCOC(=O)c1c(N2CCCC2)[nH]c(=O)c(C(c2ccc(OC)cc2)c2c(O)c(C(=O)OCC)c(N3CCCC3)[nH]c2=O)c1O` the GI50 was inactive: 81.5 µM.
With `c1ccc(CN2CCCN3CCN(CCCN(Cc4ccccc4)CC3)CC2)cc1` the GI50 was inactive: 81.5 µM.
`COc1ccc2oc(=O)c(-c3nc4ccccc4o3)cc2c1` was tested, and the GI50 was inactive: > 100 µM.
In the case of `CC(C)CCNC(=O)C(CC(C)C)NC(=O)[C@H]1O[C@@H]1C(=O)O` (stereo partly drawn), the GI50 is reported as inactive: > 100 µM.
With `Nc1ccccc1[S+]([O-])c1ccccc1` (stereo not drawn) the GI50 was inactive: > 100 µM.
In the case of `CC(C)C(/C=C/c1ccc(Cl)cc1)=N\NC(=S)NN`, the GI50 is reported as inactive: 18.5 µM.
With `CCC1CC2CN3CCc4c([nH]c5c(-c6c(OC)ccc7c8c([nH]c67)[C@]6(C(=O)OC)CC7CC(CC)C6N(CC8)C7)c(O)ccc45)[C@](C(=O)OC)(C2)C13` (stereo partly drawn) the GI50 was inactive: 16.5 µM.
In the case of `Clc1c2nc3ccccc3c-2[nH]c2ccccc12`, the GI50 is reported as inactive: 17.1 µM.
In the case of `C[C@@H](c1ccccc1)N1C[C@@H](c2ccc3c(c2)OCO3)[C@@H]2C(=O)CCC[C@@H]21`, the GI50 is reported as inactive: > 100 µM.
For `O=C(O)C1(Nc2ccc(Cl)cc2)CCCC1`, the GI50 was inactive: > 100 µM.
With `Cc1ccc(Nc2nc3c(=O)n(C)c(=O)n(C)c3nc2Nc2ccc(C)cc2)cc1` the GI50 was inactive: 20.2 µM.
In the case of `CC1=CC(=O)/C(=C/NC(=S)c2ccccc2)C(=O)O1`, the GI50 is reported as inactive: > 100 µM.
With `C=C1C(=O)OC2/C=C(\CO)C3OC3C3OC3(C)CC(OC(=O)/C(=C/C)COC(C)=O)C12` (stereo not drawn) the GI50 was inactive: 18.9 µM.
In the case of `COc1ccc(Nc2nc(N)c(C(=O)c3ccco3)s2)cc1`, the GI50 is reported as inactive: > 57.1 µM.
`O=C(O)c1ccc(Nc2c3ccccc3nc3ccccc23)cc1` was tested, and the GI50 was inactive: > 100 µM.
In the case of `O=C(O)/C(Cc1c[nH]nn1)=N\O`, the GI50 is reported as inactive: > 100 µM.
With `COC(=O)C1Cc2ccc(O)c(O)c2CN1` (stereo not drawn) the GI50 was inactive: 29 µM.
In the case of `[N-]=[N+]=NC(c1cn(C2CC(O)C(CO)O2)c(=O)[nH]c1=O)C(I)I` (stereo not drawn), the GI50 is reported as inactive: > 100 µM.
`O=C(O)c1cc2cc(c1)/N=C/c1ccccc1OCc1cccc(n1)COc1ccccc1/C=N/2` was tested, and the GI50 was inactive: > 25 µM.
`CCCCCCCCCCCCCCCCCCNc1ccn(C2OC(COP(=O)(O)OCC3OC(n4cc(C)c(=O)[nH]c4=O)CC3N=[N+]=[N-])C(O)C2O)c(=O)n1` (stereo not drawn) was tested, and the GI50 was inactive: 19.6 µM.
In the case of `Cc1ccc(N/N=C/C2=CC(C)(C)C(C#N)(C#N)C(O)=C2C#N)cc1`, the GI50 is reported as inactive: 60.8 µM.
With `CC(C)(C)C1CCP(=O)(c2ccccc2)CC1` (stereo not drawn) the GI50 was inactive: > 100 µM.
In the case of `Cc1cc(-c2nc3cc(F)ccc3s2)ccc1NC(=O)C(C)N` (stereo not drawn), the GI50 is reported as inactive: 2.86 µM.
In the case of `CCCSc1ccc2[nH]c(N3C(=O)/C(=C/c4ccco4)N=C3c3ccccc3)cc2c1`, the GI50 is reported as inactive: 19.3 µM.
For `Nc1nc(Nc2ccccc2)sc1C(=O)c1c[nH]c2ccccc12`, the GI50 was inactive: 10.6 µM.
`O=S(=O)(c1ccccc1)n1cc(C[P+](c2ccccc2)(c2ccccc2)c2ccccc2)c2ccccc21` was tested, and the GI50 was inactive: 14 µM.
For `C=C1CCCC(C)(C)[C@H]1C/C=C1\CCOC1=O`, the GI50 was inactive: 16.9 µM.
In the case of `c1c[nH]c(Cc2nc(Cc3c[nH]cn3)c[nH]2)n1`, the GI50 is reported as inactive: 12.6 µM.
For `Cn1c(-c2cccs2)cc(-c2cccs2)c1-c1ccsc1`, the GI50 was inactive: > 100 µM.
For `O=C1N/C(=N/N=C/c2ccccc2)N/C1=C\c1c[nH]c2ccccc12`, the GI50 was inactive: > 100 µM.
In the case of `C(=N\c1cnc2ccccc2c1)/c1ccc2ccccc2n1`, the GI50 is reported as inactive: > 100 µM.
In the case of `COc1nc(=O)n(COC(CO)CN2C(=O)c3ccccc3C2=O)cc1Cc1cccc(OCc2ccccc2)c1` (stereo not drawn), the GI50 is reported as inactive: 24.8 µM.
`CCCCCCCCCCCCCCCC(=O)Nc1ccn(C2OC(CO)C(O)C2O)c(=O)n1` (stereo not drawn) was tested, and the GI50 was inactive: 36.2 µM.
With `O=C(Cn1c2ccc(Br)cc2c2nc3ccccc3nc21)N/N=C/c1ccccc1` the GI50 was inactive: 39.4 µM.
With `Cc1ccc(/C=N\NC(=O)c2ccncc2)s1` the GI50 was inactive: > 100 µM.
`Brc1ccc(-c2nc(-c3ccc(Br)cc3)n(-c3ccccc3)n2)cc1` was tested, and the GI50 was inactive: > 100 µM.
For `Cc1cc(O)c2c3c(ccc2c1)C(=O)c1c(O)cccc1C3=O` [TETRANGULOL], the GI50 was inactive: 2.45 µM.
For `CO[C@H](C(=O)O[C@H]1C(=O)N2CCC3CCC1C32C)c1ccccc1` (stereo partly drawn), the GI50 was inactive: > 100 µM.
In the case of `CCN(CC)CCOC(c1cc(OC)ccc1OC)c1ccc2n1-c1ccccc1OC2` (stereo not drawn), the GI50 is reported as inactive: 15.2 µM.
For `Cc1cc(C)nc(NS(=O)(=O)c2ccc(Nc3c4ccccc4nc4c(C(=O)N5CCN(CCO)CC5)ccc(Cl)c34)cc2)n1`, the GI50 was inactive: 77.8 µM.
In the case of `CCOC(=O)/C(C(N)=O)=C(O)/C(O)=C/C(=O)c1ccc(Cl)cc1`, the GI50 is reported as inactive: 34.4 µM.
With `CCCCNC(=O)Cn1c2ccc(Br)cc2c2nc3ccccc3nc21` the GI50 was inactive: > 100 µM.
`CCOC(=O)/C1=C(\C)N(Cc2ccccc2)C(=O)c2ccccc2C(=O)c2c(OC(C)=O)ccc(OC(C)=O)c21` was tested, and the GI50 was inactive: 48.5 µM.
With `OC(CC(CC(O)(C(F)(F)F)C(F)(F)F)=NN=C(CC(O)(C(F)(F)F)C(F)(F)F)CC(O)(C(F)(F)F)C(F)(F)F)(C(F)(F)F)C(F)(F)F` the GI50 was inactive: > 10 µM.
For `Nc1nc2ncn(CC(O)COC(=O)c3ccccc3)c2c(=O)[nH]1` (stereo not drawn), the GI50 was inactive: > 100 µM.
For `CC(C)CCC/C(CBr)=C(\Cl)CCl`, the GI50 was inactive: 14.3 µM.
For `CC(C)(C)OC(=O)NC(CC(=O)OCc1ccccc1)C(=O)NC(C)(C)C(N)=O` (stereo not drawn) (Boc-[ξD](OBn)-[Aib]-NH2), the GI50 was inactive: > 100 µM.
`CC(Oc1ccc2c(=O)cc(-c3ccccc3)oc2c1)C(=O)O` (stereo not drawn) was tested, and the GI50 was inactive: > 100 µM.
In the case of `CC(=O)OC1C/C(C)=C/[C@H](O)CC(C)/C=C/[C@@]2(C)CCC(C(C)(C)O)C12` (stereo partly drawn), the GI50 is reported as inactive: > 100 µM.
With `O=C(O)[C@@H]1C[C@@H](O)CN1C(=O)OCc1ccccc1` the GI50 was inactive: > 100 µM.
For `COC(=O)c1c(-c2ccccc2)c2sc3ccccc3n2c1N`, the GI50 was inactive: > 100 µM.
In the case of `Cc1nn(-c2ccccc2)c2c1C(c1cc3ccccc3nc1Cl)NC(=S)N2` (stereo not drawn), the GI50 is reported as inactive: > 100 µM.
With `COc1ccccc1NC(=O)C1=C(C)NC(C)=C(C(=O)Nc2ccccc2OC)C1c1ccc(N(C)C)cc1` the GI50 was inactive: 38.9 µM.
For `Clc1nc(-[n+]2ccc(-c3ccncc3)cc2)nc(Nc2ccccc2)c1Cl`, the GI50 was inactive: > 100 µM.
In the case of `CC(C)(C)OC(=O)NC12C3C4C1C1C2C3C41NC(=O)OC(C)(C)C` (stereo not drawn), the GI50 is reported as inactive: 75 µM.
With `C/C(=N\O)c1ccc2cc(Br)c3ccccc3c2c1` the GI50 was inactive: 20.4 µM.
In the case of `c1ccc2c(c1)c1c3n2-c2cc(on2)C3CCC1` (stereo not drawn), the GI50 is reported as inactive: > 100 µM.
For `O=CC1=CCC2c3[nH]c4ccccc4c3CCN2C1` (stereo not drawn), the GI50 was inactive: 76 µM.
`O=C([C@H](O)[C@@H](O)c1ccc(Br)cc1)C12CC3CC(CC(C3)C1)C2` was tested, and the GI50 was inactive: 5.41 µM.
For `OCc1ccc(C2CC(c3ccco3)=NN2c2ccccc2)o1` (stereo not drawn), the GI50 was inactive: > 100 µM.
For `[O-][Cl+3]([O-])([O-])O.c1ccc(/N=c2\nc(N3CCOCC3)ss2)cc1`, the GI50 was inactive: 52.7 µM.
For `O=[N+]([O-])c1ccc(-n2nnc(C3=NCCN3)c2-c2ccccc2)cc1`, the GI50 was inactive: > 100 µM.
For `Cn1cnc([N+](=O)[O-])c1Sc1nnc(-c2ccc(Cl)cc2)n1C`, the GI50 was inactive: 37.2 µM.
For `O=C1C[C@H](c2ccccc2)O[C@@H](c2ccccc2)C1`, the GI50 was inactive: > 100 µM.
With `COC(=O)C(=O)C(C(=O)OC)C(=O)C(=O)Nc1cc(Cl)c(C)cc1S(=O)(=O)O` (stereo not drawn) the GI50 was inactive: > 100 µM.
`CCSC1(SCC)CC(Cc2ccc(OC)cc2)N(/C=N/C(C)(C)C)C1` (stereo not drawn) was tested, and the GI50 was inactive: 17.3 µM.
